Patent US10011657B2, “Anti-CS1 antibodies and antibody drug conjugates” (AbbVie Biotherapeutics Inc., priority 2014, dated 2018)

Biological target: T1, human CS1 (Homo sapiens, UniProt Q9NQ25)
T1 construct: expressed in transfected cells; host or cells: 293s cells
Assay: Flow-cytometry competition assay with AF488-labeled PDL241 (murine antibodies, Example 2)
Assay type: binding
Settings: 293s cells transfected with human CS1; 60 μg/mL unlabeled test antibody, 6 μg/mL labeled PDL241; less than 20% inhibition = does not compete
Protocol: 293s cells transfected with human CS1 (300,000 cells per data point) were incubated at various concentrations with an AF488-labeled PDL241 antibody. The concentration at which 80% of maximal binding occurred was identified (6 μg/mL) and used for the subsequent competition assays.
For the competition assays, transfected 293s cells (300,000 cells per data point) were incubated for 30 min (on ice) with a tenfold excess of unlabeled test antibody (60 μg/mL). After the incubation, 6 μg/mL of AF488-labeled PDL241 was added to the cells and incubated on ice for 30 minutes. After this incubation, the cells were washed with PBS+1% FBS, and binding of AF488-labeled PDL241 was determine by flow cytometry.

T1 sequence (Q9NQ25 23-335): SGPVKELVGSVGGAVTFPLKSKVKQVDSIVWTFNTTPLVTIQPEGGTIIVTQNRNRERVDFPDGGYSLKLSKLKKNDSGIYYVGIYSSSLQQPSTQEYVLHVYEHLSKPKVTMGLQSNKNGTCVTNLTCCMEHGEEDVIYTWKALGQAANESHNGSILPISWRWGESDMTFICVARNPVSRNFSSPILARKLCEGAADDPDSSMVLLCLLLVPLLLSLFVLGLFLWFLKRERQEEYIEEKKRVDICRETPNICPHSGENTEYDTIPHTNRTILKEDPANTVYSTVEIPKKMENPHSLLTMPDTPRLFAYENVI

Competition with AF488-labeled PDL241 for binding: do not compete with PDL241
B1: Mu27H1: murine anti-CS1 antibody, VH SEQ ID NO: 32, VL SEQ ID NO: 33 (antibody, V domains shown)
VH: QVQLQQSGPELVKPGTSVNISCKASGYTFTDHYINWVKQRPGQGLEWIGWIFPGTGITYYNENFKGKATLTVDKSSSTAYMLLSSLTSEDSAVYFCARRGYGSFDYWGQGTTLTVSS
VL: DIVMTQSPSSLAMSVGQKVTMSCKSSQSLLNSSNQKNYLAWYLQKPGQSLKLMVYFAYTRESGVPDRFIGSGSGTDFTLTISSVQAEDPADYFCQQHYSSPYTFGGGTKLEIK
